# Source: publication PMC6212790
# The other results are listed elsewhere or left out. At the low end of the ranking, values are background and their order means little.
# Target: T1, GST-Rok (full length) (UniProt O34857)
# T1 sequence: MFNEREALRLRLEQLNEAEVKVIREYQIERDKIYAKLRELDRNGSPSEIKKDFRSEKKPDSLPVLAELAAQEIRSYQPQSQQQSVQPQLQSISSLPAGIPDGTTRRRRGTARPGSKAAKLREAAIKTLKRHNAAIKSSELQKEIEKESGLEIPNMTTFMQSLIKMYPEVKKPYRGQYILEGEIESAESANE
# Test: protein binding microarray;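 also: rank score from −0.5 (least bound) to 0.5 (best bound)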
# Conditions: Rok is a gene silencer of Bacillus subtilis; high values mean tight binding; most listed sequences are background and not binding sites; double strand, one strand shown
row,Sequence,binding signal [E-score]
1,CACATCGC,-0.127
2,ATGGGACA,-0.203
3,GCGCCAAC,-0.241
4,AATCCATA,0.176
5,CATTACCC,0.00557
6,AAACTTGA,0.0856
7,ACCTCCTC,-0.132
8,CTAGAAAG,0.094
9,AGACGCGA,-0.21
10,CGGTTTGC,0.136
11,TCCGCTAA,0.119
12,CAGTTTCA,-0.0996
13,CTGCTCTC,-0.242
14,GCATTGCC,-0.155
15,ACCCAAGT,-0.0213
16,CCATTAAG,-0.00115
17,AGGCCCAT,-0.255
18,CCATTAAA,-0.117
19,AAGGGTGC,-0.212
20,GTTCGACA,0.0353
21,CAGGGTGC,-0.277
22,ATACTTTA,0.239
23,CGGCGGTA,-0.0463
24,AGATATAG,0.151

row,Sequence,binding signal [E-score]
1,AGCTGAGA,-0.0281
2,ACAACCGC,0.0131
3,GGCGTCTA,-0.277
4,CGAGTGCC,-0.235
5,ACTGCGGG,-0.141
6,TTCAGGAA,0.0134
7,CCAAGTCA,-0.00458
8,TGCCGGAA,-0.201
9,CTTGGAGC,-0.225
10,TATCGTCA,0.107
11,CGGACATC,-0.133
12,CGGCGTAG,-0.0629
13,AACCACTT,0.0602
14,AGCACAGG,-0.256
15,AGCTTTGC,-0.152
16,CTGCTTCA,-0.205
17,AAGAGCGA,-0.102
18,AGCATACA,0.0248
19,AGGTTTCA,-0.273
20,AGTTGGTA,0.151
21,CGTCCACC,-0.298
22,TCCATCCA,0.0123
23,GACTGCTC,-0.0721
24,ATGGGTCC,-0.121

row,Sequence,binding signal [E-score]
1,TCAATGAA,-0.0589
2,AAAGTCCC,-0.263
3,ATAAATCA,0.0619
4,ACCATACA,0.107
5,ACCGGTCC,-0.232
6,ACTACGAA,0.194
7,TATAGACA,0.0231
8,CATGCTTA,0.00454
9,CCGGATCC,-0.109
10,CCTAGGTA,0.0506
11,AGGTGACA,0.0342
12,TGACGACA,-0.21
13,CCTGCGTA,-0.118
14,ATCCCCCC,-0.32
15,ACGATGCC,-0.0186
16,ATACCTAT,0.333
17,CGGATGGA,-0.156
18,GGGGTCAA,-0.424
19,AAAATGTG,0.174
20,TGCGGTAA,0.0849
21,GCATACGA,0.203
22,CGTGACAC,-0.246
23,CCGCTACG,-0.107
24,AAAGTACC,0.27

row,Sequence,binding signal [E-score]
1,CCACAAAA,0.0709
2,CTACTTCC,0.155
3,GAGCGATC,-0.193
4,CAATGTGA,0.104
5,CCTGTTGC,-0.247
6,AGGGGGAC,-0.402
7,ATTGGGAG,-0.0851
8,CGGGCGTA,-0.0959
9,GGTACTAA,0.138
10,GATCTATA,0.307
11,ACTAGATG,0.339
12,AGGAAGCG,-0.117
13,GACGCCCA,-0.419
14,AGTAATGG,0.13
15,CAAGCGAA,-0.229
16,ACTAGTCA,0.352
17,ATAGTCAG,0.131
18,GGCCGACA,-0.26
19,GATTGGGC,-0.307
20,GGCATGAC,-0.16
21,CTCGCAAA,-0.0472
22,GGCAGGCC,-0.332
